The text below walks through data of PMC9911399, “Two distinct binding modes provide the RNA-binding protein RbFox with extraordinary sequence specificity”.

T1: RBFOX1 RRM RbFoxmut (Fox-RRM*) (Homo sapiens, UniProt Q9NWB1 109-208, R118D;E147R;N151S;E152T)
T1 sequence: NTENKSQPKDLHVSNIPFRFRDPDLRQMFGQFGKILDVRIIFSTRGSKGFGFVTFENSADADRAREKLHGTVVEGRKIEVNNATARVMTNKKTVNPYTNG

B1: UCCUAAC (DNA:RNA)
RNA: GGGAGACCGGAAUUCAGAUUGUCCUCCUAACUUAAAUCCCGUCGUAGCCACCA
DNA 1: CAATCTGAATTCCGGTCTCCC
DNA 2: TGGTGGCTACGACGGGATT
B2: CGAUUUU (DNA:RNA)
RNA: B1 RNA with U25C, C26G, C27A, A29U, A30U, C31U
DNA 1: CAATCTGAATTCCGGTCTCCC
DNA 2: TGGTGGCTACGACGGGATT
B3: CCGAUAU (DNA:RNA)
RNA: B1 RNA with U25C, C27G, U28A, A29U, C31U
DNA 1: CAATCTGAATTCCGGTCTCCC
DNA 2: TGGTGGCTACGACGGGATT
B4: GGAAUCU (DNA:RNA)
RNA: GGGAGACCGGAAUUCAGAUUGUCCGGAAUCUUUAAAUCCCGUCGUAGCCACCA
DNA 1: CAATCTGAATTCCGGTCTCCC
DNA 2: TGGTGGCTACGACGGGATT
B5: GUUGGAC (DNA:RNA)
RNA: B1 RNA with U25G, C26U, C27U, U28G, A29G
DNA 1: CAATCTGAATTCCGGTCTCCC
DNA 2: TGGTGGCTACGACGGGATT
B6: UCAUGAA (DNA:RNA)
RNA: B1 RNA with C27A, A29G, C31A
DNA 1: CAATCTGAATTCCGGTCTCCC
DNA 2: TGGTGGCTACGACGGGATT
B7: GUCAGUC (DNA:RNA)
RNA: B4 RNA with G26U, A27C, U29G, C30U, U31C
DNA 1: CAATCTGAATTCCGGTCTCCC
DNA 2: TGGTGGCTACGACGGGATT
B8: CGCGGUC (DNA:RNA)
RNA: B1 RNA with U25C, C26G, U28G, A29G, A30U
DNA 1: CAATCTGAATTCCGGTCTCCC
DNA 2: TGGTGGCTACGACGGGATT
B9: UUCAGUC (DNA:RNA)
RNA: B1 RNA with C26U, U28A, A29G, A30U
DNA 1: CAATCTGAATTCCGGTCTCCC
DNA 2: TGGTGGCTACGACGGGATT
B10: GCAUCCC (DNA:RNA)
RNA: B4 RNA with G26C, A28U, U29C, U31C
DNA 1: CAATCTGAATTCCGGTCTCCC
DNA 2: TGGTGGCTACGACGGGATT
B11: UGACAAU (DNA:RNA)
RNA: B4 RNA with G25U, A28C, U29A, C30A
DNA 1: CAATCTGAATTCCGGTCTCCC
DNA 2: TGGTGGCTACGACGGGATT
B12: CUGAGGU (DNA:RNA)
RNA: B4 RNA with G25C, G26U, A27G, U29G, C30G
DNA 1: CAATCTGAATTCCGGTCTCCC
DNA 2: TGGTGGCTACGACGGGATT
B13: AUCAGAU (DNA:RNA)
RNA: B4 RNA with G25A, G26U, A27C, U29G, C30A
DNA 1: CAATCTGAATTCCGGTCTCCC
DNA 2: TGGTGGCTACGACGGGATT
B14: CUCGACG (DNA:RNA)
RNA: B1 RNA with U25C, C26U, U28G, A30C, C31G
DNA 1: CAATCTGAATTCCGGTCTCCC
DNA 2: TGGTGGCTACGACGGGATT
B15: UGCAACU (DNA:RNA)
RNA: B4 RNA with G25U, A27C, U29A
DNA 1: CAATCTGAATTCCGGTCTCCC
DNA 2: TGGTGGCTACGACGGGATT
B16: CGCUGCU (DNA:RNA)
RNA: B4 RNA with G25C, A27C, A28U, U29G
DNA 1: CAATCTGAATTCCGGTCTCCC
DNA 2: TGGTGGCTACGACGGGATT
B17: CGUUAGU (DNA:RNA)
RNA: B4 RNA with G25C, A27U, A28U, U29A, C30G
DNA 1: CAATCTGAATTCCGGTCTCCC
DNA 2: TGGTGGCTACGACGGGATT
B18: UGCAUCA (DNA:RNA)
RNA: B4 RNA with G25U, A27C, U31A
DNA 1: CAATCTGAATTCCGGTCTCCC
DNA 2: TGGTGGCTACGACGGGATT
B19: GUGGGAC (DNA:RNA)
RNA: B1 RNA with U25G, C26U, C27G, U28G, A29G
DNA 1: CAATCTGAATTCCGGTCTCCC
DNA 2: TGGTGGCTACGACGGGATT
B20: ACACCUG (DNA:RNA)
RNA: B4 RNA with G25A, G26C, A28C, U29C, C30U, U31G
DNA 1: CAATCTGAATTCCGGTCTCCC
DNA 2: TGGTGGCTACGACGGGATT
B21: AUGUCUA (DNA:RNA)
RNA: B1 RNA with U25A, C26U, C27G, A29C, A30U, C31A
DNA 1: CAATCTGAATTCCGGTCTCCC
DNA 2: TGGTGGCTACGACGGGATT
B22: CGAACCC (DNA:RNA)
RNA: B4 RNA with G25C, U29C, U31C
DNA 1: CAATCTGAATTCCGGTCTCCC
DNA 2: TGGTGGCTACGACGGGATT
B23: UGCACUC (DNA:RNA)
RNA: B1 RNA with C26G, U28A, A29C, A30U
DNA 1: CAATCTGAATTCCGGTCTCCC
DNA 2: TGGTGGCTACGACGGGATT
B24: ACAAUUC (DNA:RNA)
RNA: B4 RNA with G25A, G26C, C30U, U31C
DNA 1: CAATCTGAATTCCGGTCTCCC
DNA 2: TGGTGGCTACGACGGGATT
B25: GAAAGGU (DNA:RNA)
RNA: B4 RNA with G26A, U29G, C30G
DNA 1: CAATCTGAATTCCGGTCTCCC
DNA 2: TGGTGGCTACGACGGGATT
B26: GUUCAUG (DNA:RNA)
RNA: B4 RNA with G26U, A27U, A28C, U29A, C30U, U31G
DNA 1: CAATCTGAATTCCGGTCTCCC
DNA 2: TGGTGGCTACGACGGGATT
B27: UGAUCAG (DNA:RNA)
RNA: B1 RNA with C26G, C27A, A29C, C31G
DNA 1: CAATCTGAATTCCGGTCTCCC
DNA 2: TGGTGGCTACGACGGGATT
B28: GUUCCGG (DNA:RNA)
RNA: B4 RNA with G26U, A27U, A28C, U29C, C30G, U31G
DNA 1: CAATCTGAATTCCGGTCTCCC
DNA 2: TGGTGGCTACGACGGGATT
B29: UUAAGUC (DNA:RNA)
RNA: B4 RNA with G25U, G26U, U29G, C30U, U31C
DNA 1: CAATCTGAATTCCGGTCTCCC
DNA 2: TGGTGGCTACGACGGGATT
B30: UACCUGU (DNA:RNA)
RNA: B4 RNA with G25U, G26A, A27C, A28C, C30G
DNA 1: CAATCTGAATTCCGGTCTCCC
DNA 2: TGGTGGCTACGACGGGATT
B31: GAACUAU (DNA:RNA)
RNA: B4 RNA with G26A, A28C, C30A
DNA 1: CAATCTGAATTCCGGTCTCCC
DNA 2: TGGTGGCTACGACGGGATT

Numbering of substitutions follows the chain as printed; changes in the protein carry UniProt numbers. Some of the results follow.

The assay has as its target T1, RBFOX1 RRM RbFoxmut (Fox-RRM*). The experiment in a line: EMSA; HiTS-Eq, 1 nM pool, 10 min; buffer printed only for the single-RNA assays: 10 mM Tris pH 7.5, 150 mM NaCl, 3.4 mM EDTA, 0.001% NP-40, 30 C. The conditions noted are these: tags: His6 N-terminal (pET28a); label: 5' 32P. The procedure, abridged: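 Purified RbFox RRM (wild type or mutant) was equilibrated for 10 min in 50 µL with 1 nM of a 5′-radiolabelled pool of RNA with 7 randomized nucleotides, its flanks annealed to DNA oligonucleotides, across increasing protein concentrations. Free RNA was separated by 8% native PAGE, excised, reverse-transcribed, PCR-barcoded and sequenced on an Illumina HiSeq 2500. Relative association constants came from read-count changes of each variant against the control reaction, normalised to the cognate motif.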
As to B1, the binding signal is 0.0962 KA relative to UGCAUGU.

On to B2, for which the binding signal was 0.0883 KA relative to UGCAUGU.

Regarding B3, the binding signal is 0.101 KA relative to UGCAUGU.

In the case of B4, the binding signal was 0.336 KA relative to UGCAUGU.

For the molecule B5, the binding signal was 0.0564 KA relative to UGCAUGU.

Consider B6, for which the binding signal is 0.135 KA relative to UGCAUGU.

Regarding B7, the binding signal was 0.0719 KA relative to UGCAUGU.

Regarding B8, the binding signal was 0.191 KA relative to UGCAUGU.

With B9, the binding signal was 0.046 KA relative to UGCAUGU.

In the case of B10, the binding signal is 0.142 KA relative to UGCAUGU.

For the molecule B11, the binding signal is 0.0431 KA relative to UGCAUGU.

Consider B12, for which the binding signal was 0.115 KA relative to UGCAUGU.

Consider B13, for which the binding signal was 0.0918 KA relative to UGCAUGU.

On to B14, for which the binding signal was 0.117 KA relative to UGCAUGU.

For B15, the binding signal is 0.0982 KA relative to UGCAUGU.

As to B16, the binding signal was 0.103 KA relative to UGCAUGU.

On to B17, for which the binding signal was 0.17 KA relative to UGCAUGU.

Regarding B18, the binding signal is 0.565 KA relative to UGCAUGU.

For B19, the binding signal was 0.0712 KA relative to UGCAUGU.

Take B20: the binding signal was 0.0842 KA relative to UGCAUGU.

On to B21, for which the binding signal is 0.122 KA relative to UGCAUGU.

As for B22, the binding signal is 0.0695 KA relative to UGCAUGU.

As for B23, the binding signal was 0.0834 KA relative to UGCAUGU.

For B24, the binding signal was 0.0869 KA relative to UGCAUGU.

As to B25, the binding signal was 0.0507 KA relative to UGCAUGU.

With B26, the binding signal was 0.126 KA relative to UGCAUGU.

Consider B27, for which the binding signal was 0.0881 KA relative to UGCAUGU.

In the case of B28, the binding signal is 0.0658 KA relative to UGCAUGU.

Regarding B29, the binding signal was 0.0748 KA relative to UGCAUGU.

With B30, the binding signal is 0.113 KA relative to UGCAUGU.

For the molecule B31, the binding signal was 0.0684 KA relative to UGCAUGU.
